Out of some 71,000 compounds screened, about 1,800 (2.5%) were called active. Inconclusive results, whose numbers are uncertain, are shown with a selection of clear calls. Calls follow the shape of the dose curve; as a rule, active = well fitted activation curve with a large enough effect in the signal ratio, with a control signal flat (not every such curve was filed as active); inconclusive = small, poorly fitted or top-dose-only effect, or effect the other way, or a change in a side signal; inactive = flat fitted curve, though single readings scatter; the % refers to the signal ratio. Potencies of inconclusive entries are doubtful fits and often do not repeat.
Assay: Cell signaling CRE-BLA (Fsk stim); as to activity change, negative = inhibition: % of control where 0% means no effect
Conditions: CHO CRE-bla reporter (cAMP response element driving beta-lactamase), forskolin EC10, beta-lactamase ratio; activity change, negative = inhibition: at 38.2 µM (top of the series) unless noted
How it was run: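 CHO CRE-bla cells, overnight plating in Opti-MEM with 0.5% dialyzed FBS; cpd titration + EC10 NKH 477, 3 h 37 °C; CCF4 2 h RT; ex 405/em 460 vs 530 ratio → %Activity, AC50.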
Potency is read from the fitted curve at half-maximal effect; tags tell the direction and shape of the fitted curve.

Row | Structure (SMILES) | activity change, negative = inhibition | Potency
1 | CCCOc1ccc(-c2nc(C#N)c(N3CCN(C)CC3)o2)cc1 | inconclusive: 21.8% | 
2 | CC(C)CN1CCCC2(CCN(C(=O)c3ccco3)CC2)C1 | inactive: -4.95% | 
3 | COc1cc2ccccc2cc1-c1nnc(COc2ccccc2)o1 | inactive: 5.43% | 
4 | COc1ccc2c(CSc3nc4nc(C)cc(C)n4n3)cc(=O)oc2c1 |  | active: 10 µM
5 | COc1cc(C(=O)NCc2nnc(SCC(=O)Nc3cc(C)cc(C)c3)o2)cc(OC)c1OC |  | inconclusive: 12.6 µM [rising, single point]
6 | Cc1cc(C)c2nc(N3CCCN(C(=O)c4cnccn4)CC3)c(C#N)cc2c1 |  | inconclusive: 12.6 µM [rising, single point]
7 | Cc1ccccc1OCCCN1C(=O)C(=O)c2cccc(C)c21 | inconclusive: 11% | 
8 | Cc1cc(Nc2cc(F)ccc2C)n2ncnc2n1 |  | inconclusive: 10 µM [rising, single point]
9 | C[C@@]12CC[C@@H]3c4ccc(O)cc4CC[C@H]3[C@H]1C[C@@H](O)[C@H]2O | inactive: -7.86% [at 17.1 µM] | 
10 | Cc1csc(NC(=O)c2sc3nc(-c4cccs4)ccc3c2N)n1 |  | inconclusive: 12.6 µM [falling, partial curve]
11 | Cc1cc2occ(CC(=O)NC3=NCCS3)c2cc1C(C)C |  | inconclusive: 0.0794 µM [rising, full curve]
12 | CCC(=O)N1CCc2cc(S(=O)(=O)N3CCc4ccccc43)ccc21 |  | inconclusive: 5.01 µM [rising, single point]
13 | O=C(NC1CCCCC1)C1CCCN(S(=O)(=O)c2cccs2)C1 (configuration not stated) | inconclusive: -9.18% | 
14 | N#CCC(=O)Nc1sc2c(c1C(N)=O)CCCC2 |  | active: 12.6 µM
15 | COc1cccc(C2C3CN(C)CC=C3C(C#N)=C(N)C2(C#N)C#N)c1OC (configuration not stated) | inconclusive: 18.2% | 
16 | O=C(OCc1c(Cl)nc2sccn12)c1cc2c(s1)CCCC2 |  | inconclusive: 5.01 µM [falling, single point]
17 | CC1Cn2c(nnc2-c2cccc(N)c2)S1 (configuration not stated) | inactive: -4.01% | 
18 | CC1CC(C)CN(CCCNC(=O)C2CCC(=O)N2C2CCCC2)C1 (configuration not stated) | inactive: 8.59% | 
19 | CCCOc1ccc2c(C)c(CC(=O)OC)c(=O)oc2c1 | inconclusive: 2.18% | 
20 | O=C(CN1C(=O)C2C3C=CC(C3)C2C1=O)N1CC=C(c2ccccc2)CC1 (configuration not stated) | inconclusive: 10.2% | 
21 | O=C(O)CCc1ccc(-c2ccc(Cl)cc2)n1CC(=O)O | inconclusive: -13.1% [at 7.6 µM] | 

Row | Structure (SMILES) | activity change, negative = inhibition | Potency
22 | COC(=O)c1ccc(C(NC(=O)OCc2ccccc2)/C(=C/[C@@H](C)C(=O)NCCF)c2cccnc2)cc1 (some centres not stated) | inactive: -10% | 
23 | CN(Cc1ccco1)c1cc(-c2ccc3c(c2)OCO3)ncn1 |  | inconclusive: 3.98 µM [rising, partial curve]
24 | Cc1ccc(CCNC(=O)CN2C(=O)COc3ccccc32)cc1 | inconclusive: 15.3% | 
25 | O=C1c2ccccc2C(Nc2ccc3c(c2)OCCO3)N1Cc1ccc2c(c1)OCO2 (configuration not stated) | inconclusive: 7.14% | 
26 | CCCS(=O)(=O)N1CCC(C(=O)NC2CCC(C)CC2)CC1 (configuration not stated) | inconclusive: 5.94% | 
27 | O=c1c2c3nc4ccccc4nc3n(-c3cccc(F)c3)c2ncn1Cc1ccc2c(c1)OCO2 |  | inconclusive: 3.98 µM [rising, full curve, poor fit]
28 | CCc1nnc(NC(=O)CSc2nnc(-c3ccc(O)cc3)n2-c2ccccc2)s1 | inactive: 4.63% | 
29 | CCn1nc(-c2ccccc2)c2nc3ccccc3nc21 | inconclusive: -4.78% [fluorescent] | 
30 | Cc1cc(NCCCN2CCOCC2)n2nc(C)c(-c3ccccc3)c2n1 |  | inconclusive: 10 µM [rising, single point]
31 | NC(N)=NC(N)=Nc1ccc(S(N)(=O)=O)cc1 | inactive: 12.6% [at 7.6 µM] | 
32 | CN(C)c1ccc(-c2nc(NCc3cccnc3)c3ccccc3n2)cc1 |  | inconclusive: 12.6 µM [rising, partial curve]
33 | O=C(CCCCCN1C(=O)c2ccccc2C1=O)Nc1nccs1 | inconclusive: 21.8% | 
34 | COc1ccc(-c2nnc3ccc(SCC(=O)N4CCN(c5ccccc5)CC4)nn23)cc1OC | inconclusive: 29.4% | 
35 | Cc1nnc2sc(-c3ccc(NC(=O)c4ccc(-c5ccc(Cl)cc5Cl)o4)cc3)nn12 | inactive: -12.7% | 
36 | O=c1[nH]c(CN2CCN(c3ccccc3)CC2)nc2ccccc12 | inconclusive: -9.31% | 
37 | COCC(=O)Nc1sc2c(c1C(=O)OC)C(C(=O)OC)CC2 (configuration not stated) |  | inconclusive: 12.6 µM [rising, single point]
38 | CCOC(=O)Cn1cnc2c(nnn2-c2ccc(C)cc2)c1=O | inconclusive: 14.6% | 
39 | COc1ccccc1C1CC(c2ccc(Cl)cc2Cl)Nc2nc(N)nn21 (configuration not stated) |  | inconclusive: 12.6 µM [rising, single point]
40 | CC(=O)N1CCN(c2ccccc2NC(=O)COc2ccc(Cl)cc2Cl)CC1 |  | inconclusive: 12.6 µM [rising, partial curve]
41 | CCN(CC)CCOc1cc2c(nn1)Oc1ccccc1N2C | inconclusive: 6.68% | 
42 | COc1ccc2[nH]cc(CCNc3ccnc(-c4ccc5c(c4)OCO5)n3)c2c1 | inactive: 16.9% | 

Row | Structure (SMILES) | activity change, negative = inhibition | Potency
43 | C=CCn1c(SCc2ccccc2C#N)nnc1-c1cc(Br)ccc1O | inconclusive: -24.5% | 
44 | COc1cc(NC(=O)CN2C(=O)c3ccccc3C2=O)c(C(=O)O)cc1OC | inactive: -6.17% | 
45 | Cc1ccc(C)c(N2CCN(Cc3nnnn3C3CCCCC3)CC2)c1 |  | inconclusive: 12.6 µM [rising, single point]
46 | CN(C)c1ccc(-n2cc3c(=O)n(C)c(=O)n(C)c3c2)cc1 |  | inconclusive: 10 µM [rising, partial curve]
47 | CCC(O)CNc1nc(-n2nc(C)cc2C)nc2sc3c(c12)CCCC3 (configuration not stated) |  | active: 0.794 µM
48 | COc1ccccc1-c1cc(=O)c2cc(O)ccc2o1 |  | inconclusive: 15.8 µM [rising, partial curve]
49 | CCCn1c(=O)c2ccccc2n2c(SCCOc3ccc(OC)cc3)nnc12 |  | inconclusive: 5.01 µM [rising, partial curve]
50 | Cn1c(=O)c(CCc2ccccc2)nc2cnc(N3CCOCC3)nc21 | inconclusive: 28.3% | 
51 | CCOC(=O)c1sc(NC(C)=O)cc1C | inconclusive: -16.1% | 
52 | C=CCn1nnnc1SCC(=O)Nc1cccc(OC)c1 |  | inconclusive: 0.316 µM [falling, full curve, poor fit]
53 | CCn1c(=O)cc(OCC(=O)NCc2cccnc2)c2ccccc21 |  | inconclusive: 12.6 µM [rising, single point]
54 | CCNc1ncc2nc(-c3ccc(F)cc3)c(=O)n(Cc3ccc(F)cc3)c2n1 |  | inconclusive: 5.01 µM [rising, partial curve]
55 | CCOC(=O)c1oc2nc(C(C)C)c3c(c2c1N)CC(C)(C)OC3 | inactive: 25% | 
56 | O=C(NCC1(c2ccccc2)CCOCC1)c1ccc(Br)o1 | inactive: 0.484% | 
57 | Nc1nc(-c2cccnc2)nn1C(=O)Cc1ccccc1 | inactive: 13% | 
58 | COc1ccc(OC(C)C(=O)N2CC(C)OC(C)C2)cc1 (configuration not stated) | inconclusive: 1.26% | 
59 | Cn1c(C(C#N)C2=C(Cl)C(=O)N(c3ccccc3)C2=O)nc2ccccc21 (configuration not stated) | inconclusive: -20.1% | 
60 | CN1CCN(CCCNC(=O)Nc2cccc3ccccc23)CC1 | inactive: -3.19% | 
61 | CCS(=O)(=O)N1CCC(C(=O)Nc2cc(Cl)ccc2O)CC1 | inconclusive: -7.56% | 
62 | O=C(NCCOC(=O)C1COc2ccccc2O1)C1COc2ccccc2O1 (configuration not stated) | inconclusive: -18.4% [at 7.6 µM] | 
63 | CCCn1cnc2c(SCC(=O)O)nc(N)nc21 | inactive: -1.02% [at 7.6 µM] | 

Row | Structure (SMILES) | activity change, negative = inhibition | Potency
64 | CSc1nsc(SCC(=O)N2CCc3ccccc32)n1 | inactive: -13.2% | 
65 | COc1ccc2[nH]c(=S)[nH]c2c1 | inactive: -4% | 
66 | CC(C)c1nc(SCc2ccccn2)c2c(=O)n(C)c(=O)n(C)c2n1 |  | active: 5.01 µM
67 | Cc1cc(Oc2ccc(Cl)cc2)nc(-c2ccccc2O)n1 |  | inconclusive: 7.94 µM [rising, partial curve]
68 | COc1ccc(C(=S)N2CCCC2)cc1C | inactive: 7.17% [at 7.6 µM] | 
69 | CCOC(=O)C(C)Oc1ccc(C2NC(=O)NC(C)=C2C(C)=O)cc1Br (configuration not stated) | inconclusive: -0.565% | 
70 | O=C(Nc1ccccc1)N1CC[C@@]2(CCCN(C(=O)c3cnccn3)C2)C1 | inactive: -1.82% | 
71 | Cc1ccc(-c2nn3c(C)nnc3c3ccccc23)cc1S(=O)(=O)N1CCN(CCO)CC1 |  | inconclusive: 10 µM [rising, partial curve]
72 | COC(=O)C1=CNC=C(C(=O)OC)C1c1ccc(C(=O)OC)cc1 |  | inconclusive: 10 µM [rising, partial curve]
73 | O=C(c1cc(-c2ccc(O)cc2)on1)N1CCc2ccccc2C1 | inconclusive: -8.45% | 
74 | COC(=O)c1ccc(CSc2nc(C(F)(F)F)c3c(c2C#N)CCC3)o1 | inconclusive: -16.2% | 
75 | COc1cccc(-c2nc(NCc3cnc(C)cn3)c3ccccc3n2)c1 |  | active: 12.6 µM
76 | CC(C(=O)N1CCc2ccccc21)N1CCc2ccccc2C1 (configuration not stated) |  | inconclusive: 10 µM [falling, single point]
77 | CN(Cc1ccccc1)c1nc2c(c(=O)[nH]c(=O)n2C)n1C | inactive: 11.6% | 
78 | CC(=O)C1=C(C)NC(SCC(=O)c2ccc(Cl)cc2Cl)=C(C#N)C1c1ccco1 (configuration not stated) | inconclusive: -6.25% | 
79 | CCn1c(SCc2nc3ccccc3s2)nnc1-c1cccs1 | inconclusive: 1.97% | 
80 | CCOC(=O)N1CCC(NC(=O)c2cc3c(=O)n(C)c4ccccc4c3n2C)CC1 |  | inconclusive: 5.01 µM [rising, partial curve]
81 | Cc1cc(C)n(-c2c(F)c(F)c(CN3CCOCC3)c(F)c2F)n1 | inconclusive: 4.76% | 
82 | CCCCNC(=O)c1cc2c(=O)n3cccc(C)c3nc2n(Cc2ccncc2)c1=N |  | active: 3.16 µM
